Measured values published in PubChem BioAssay AID1347073 (National Center for Advancing Translational Sciences (NCATS), 2019).
In all, about 45,000 compounds went through this assay and about 200 (0.44%) were called active. Another 7% or so got no clear call; they are omitted. The call rests on the fitted dose curve; in most records, active means well fitted activation curve with a large enough effect; inconclusive means small, poorly fitted or top-dose-only effect; inactive means no such curve, though single readings can be large or run the other way. The list shows a part of the results.

assay: qHTS of TDP-43 Inhibitors: NCGC Sytravon Library Screen; conditions: yeast TDP-43 toxicity rescue, BacTiter-Glo growth, 24 h; series mostly up to 46.1 µM; growth rescue (activation): at the top concentration; further: 0% is about no effect; nearly all actives have a fitted effect of over 55% in size
Procedure, shortened: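 TDP-43-expressing yeast, pregrown in raffinose, seeded at OD600 0.02 in galactose medium with compound for 24 hr at 30 deg C. Growth read by BacTiter-Glo luminescence, so rescue of toxicity appears as activation.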

Row | SMILES | growth rescue (activation)
1 | CSc1ccc(S(=O)(=O)N2CCC(C(=O)NCCN3CCOCC3)CC2)cc1 | inactive: 13.8%
2 | CC(=O)Nc1sc(/C(C#N)=C\c2cccc(Cl)c2)nc1-c1ccc(C)cc1 | inactive: -7.82%
3 | C/C(=N\NC(=O)c1cccc([N+](=O)[O-])c1)c1cccs1 | inactive: 26.6%
4 | Cc1ccc(C(=O)n2c(N)nc3ccccc32)cc1 | inactive: -4.96%
5 | Cc1nn(C)cc1CNC(=O)c1cccc(F)c1 | inactive: -0.408%
6 | COc1nc(Nc2cccc([N+](=O)[O-])c2)nc(OC)n1 | inactive: 0.336%
7 | O=C(Nc1nccs1)c1cc(-c2ccco2)nc2ccccc12 | inactive: 16.1%
8 | CCOc1ccccc1NCc1cc(=O)oc2cc(C)ccc12 | inactive: -11.2%
9 | COc1ccc2[nH]c3c(=O)n(Cc4ccc(C(=O)N5CCCCCC5)cc4)c(=S)[nH]c3c2c1 | inactive: -0.164%
10 | Cc1ccc(-n2c(=O)[nH]c3c(C(N)=O)nc(C(C)C)nc32)cc1 | inactive: -8.87%
11 | O=C(NC(=S)N1CCN(Cc2ccc3c(c2)OCO3)CC1)c1ccc(Cl)cc1 | inactive: 7.46%
12 | O=C(CNc1ccc(F)cc1F)NC(=O)NCc1ccco1 | inactive: -2.61%
13 | COC(=O)c1ccc(NC(=O)Cn2cnc3c2c(=O)n(C)c(=O)n3C)cc1 | inactive: 4.35%
14 | CN(c1ccc(OCC(=O)OCC(=O)NC2CCCC2)cc1)S(=O)(=O)c1ccc2ccccc2c1 | inactive: -12.2%
15 | NS(=O)(=O)c1ccc(NC(=O)COC(=O)Cc2c[nH]c3ccccc23)cc1 | inactive: 5.51%
16 | CC1(C)Cc2c(cnn2-c2cccc(F)c2)C(NC(=O)c2ccc[n+]([O-])c2)C1 (stereo not drawn) | inactive: 5.74%
17 | COc1ccccc1NS(=O)(=O)c1cc(NC(=O)c2ccc3c(c2)OCCO3)ccc1C | inactive: -9.07%
18 | CCOc1cc(CNCCO)cc(Br)c1OCc1ccccc1 | inactive: -14.1%
19 | CC1CCN(C(=O)COC(=O)CNC(=O)c2ccccc2F)CC1 | inactive: -6.16%
20 | Cc1ccc(Cl)cc1N1CCN(S(=O)(=O)c2c(C)nc3scc(C)n3c2=O)CC1 | inactive: 17%
21 | Cc1cccc(OCCCC(=O)Nc2nccs2)c1C | inactive: 22.6%
22 | Cc1ccc(C)c(OCCC(=O)Nc2cc(S(=O)(=O)N3CCCCC3)ccc2C)c1 | inactive: 8.81%
23 | CN1CCCCC1(C)C(=O)NCc1ccc(F)cc1 (stereo not drawn) | inactive: 2.42%
24 | CC1(C)OC(=O)N(c2ccccn2)C1(C)O (stereo not drawn) | inactive: -19.1%
25 | COc1ccc(CCNS(=O)(=O)c2ccc3c(c2)NC(=O)CO3)cc1OC | inactive: -25.2%
26 | CC(C)(C)c1ccc(C(=O)NCCCNC(=O)c2ccccn2)cc1 | inactive: -6.16%
27 | O=C(CN1CCN(S(=O)(=O)c2ccc(Cl)cc2)CC1)N1CCCC1 | inactive: 8.19%

Row | SMILES | growth rescue (activation)
28 | CC(C)N(C(=O)Cn1cc(S(=O)(=O)Cc2ccc(Cl)cc2)c2ccccc21)C(C)C | inactive: 7.74%
29 | OCCC1CN(CC(c2ccccc2)c2ccccc2)CCN1C1CCCC1 (stereo not drawn) | inactive: -3.48%
30 | CCN1C(=O)/C(=C\c2nc3ccccc3c(=O)n2-c2ccccc2)c2ccccc21 | inactive: 17.7%
31 | CSc1ncc(C(=O)Nc2ccccc2C)c(C)n1 | inactive: 10.9%
32 | CC1CN(S(=O)(=O)c2ccc(F)cc2)C(C)N1C(=O)N1CCOCC1 (stereo not drawn) | inactive: 3.57%
33 | COc1ccccc1N(CC(=O)NC1CCCC1)C(=O)CNC(=O)c1cccs1 | inactive: -12.7%
34 | COc1ccc(OC)c(NC(=O)C(C)N2c3cccc4cccc(c34)S2(=O)=O)c1 (stereo not drawn) | inactive: -7.99%
35 | N#Cc1c(NC(=O)CSc2nnc(-c3ccncc3)n2CC2CCCO2)sc2c1CCCC2 (stereo not drawn) | inactive: 13.9%
36 | CCn1cc(-c2cc(C(=O)O)on2)c(C)n1 | inactive: 7.85%
37 | COc1cccc(CSc2nc3ccncc3[nH]2)c1 | inactive: -24.9%
38 | O=C(COC(=O)C1(c2ccc(F)cc2)CCCC1)N1CCN(C(=O)c2ccco2)CC1 | inactive: 12.7%
39 | Cc1cc(C(=O)CN2C(=O)NC3(CCCc4ccccc43)C2=O)c(C)n1C (stereo not drawn) | inactive: -9.62%
40 | Cc1ccc(CNC(=O)COC(=O)c2ccc(S(=O)(=O)N3CCOCC3)cc2)cc1 | inactive: -13.6%
41 | COc1ccc(NC(=O)C2CCCN(S(=O)(=O)c3cccc4nonc34)C2)cc1OC (stereo not drawn) | inactive: -0.907%
42 | CC(=O)C1=C(O)C(=O)N(c2ccc(Br)cn2)C1c1ccccc1[N+](=O)[O-] (stereo not drawn) | inactive: 2.75%
43 | Cc1ccc(S(=O)(=O)NCC(=O)OCC(=O)c2c(N)n(C)c(=O)n(C)c2=O)cc1 | inactive: 14%
44 | CC(C)N(Cc1cc2ccccc2[nH]c1=O)C(=O)c1cccc([N+](=O)[O-])c1 | inactive: 27.6%
45 | CC(C)COc1ccc(C(=O)N2C(=O)c3ccc(N)cc3C2=O)cc1 | inactive: 13.3%
46 | O=C(Cc1ccc(Cl)cc1)NCCCNC(=O)c1cccnc1 | inactive: -11.3%
47 | Cc1sc(NC(=O)CSc2nnnn2C(C)C)c(C#N)c1C | inactive: 15.2%
48 | Cc1cccc(OCC(=O)NCC(=O)N/N=C/c2cc(Br)cc(Br)c2O)c1 | inactive: 3.81%
49 | CCn1c(=O)c(=O)[nH]c2cc(C(=O)NCc3ccc(F)cc3)ccc21 | inactive: -3.33%
50 | CCN1/C(=C2\C(=O)N(C)C(=S)N2c2ccccc2)C=Cc2ccccc21 | inactive: -28.6%
51 | CCN1C(=O)/C(=C2\SC(=S)N(NC(=O)c3ccccc3O)C2=O)c2ccccc21 | inactive: -4.6%
52 | Cc1ccc(NC(=O)CS(=O)c2ccccc2N)c(C)c1 (stereo not drawn) | inactive: 22.3%
53 | Cc1cc(C2=NNC(=Nc3ccc(S(=O)(=O)N4CCOCC4)cc3)SC2)c(C)n1C | inactive: -1.48%
